# From the supplement of paper PMC12217912
# Some of the results follow. Sequences were assembled here from the parent chain. Inactive controls read about 0.05.
# B1: TEV protease; numbered along this chain (parent)
# chain: MGESLFKGPRDYNPISSSICHLTNESDGHTTSLYGIGFGPFIITNKHLFRRNNGTLVVQSLHGVFKVKDTTTLQQHLVDGRDMIIIRMPKDFPPFPQKLKFREPQREERICLVTTNFQTKSMSSMVSDTSCTFPSGDGIFWKHWIQTKDGQCGSPLVSTRDGFIVGIHSASNFTNTNNYFTSVPKNFMELLTNQEAQQWVSGWRLNADSVLWGGHKVFMVKPEEPFQPVKEATQL
# Variants of: B1
# Assay: raw area under fraction-flipped curve 0-4 h after induction (AUC4h, not background-subtracted), DNA-recorder readout of cleavage of the substrate (dimensionless); higher = more cleavage of the substrate by the protease variant
# Conditions: temperature: 34 °C; time window: 0-4 h after rhamnose induction
# Method: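 In vivo DNA recorder in E. coli TOP10(DE3) ΔrhaA at 34 °C. Each TEVp single-site mutant (parent TEVp 0) is paired with a single-site variant of the 7-mer TEVs (canonical ENLYFQ|S). The substrate sits between flexible linkers in a Bxb1-sfGFP-TEVs-SsrA fusion, so cleavage stabilises Bxb1 and speeds flipping of a recombination array, read by NGS. The value is the raw area under the fraction-flipped curve over 0-4 h after rhamnose induction (AUC4h), with ≥20 reads per time point. It is not background-subtracted; inactive controls average about 0.047.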
# 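Further: Bxb1 expression induced with 0.2% (w/v) L-rhamnose at OD600 near 0.5, cultures sampled hourly, flipped fraction per protease–substrate barcode pair counted by paired-end Illumina sequencing.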
Variant,area with substrate ENLYFQC,area with substrate ENLYFQE,area with substrate ENLYFQH,area with substrate ENLYFQK,area with substrate ENLYFQL,area with substrate ENLYFQM,area with substrate ENLYFQP,area with substrate ENLYFQR,area with substrate ENLYFQS,area with substrate ENLYFQT,area with substrate ENLYFQW,area with substrate ENLYFQY,area with substrate ENLYFQD,area with substrate ENLYFQN,area with substrate ENLYFQF,area with substrate ENLYFQG,area with substrate ENLYFQI,area with substrate ENLYFQQ,area with substrate ENLYFQV
S121Y,0.117,0.067,0.0669,0.0533,0.0559,0.0926,0.0339,0.0748,0.104,0.0502,0.0733,0.0688,,,,,,,
M122K,0.136,0.0823,,,0.0657,0.0902,,0.0537,0.11,0.0744,0.0581,0.0589,0.0744,0.121,,,,,
S123T,0.13,,0.0814,0.0672,0.0565,0.1,0.0593,0.0552,0.106,0.0677,0.0676,0.0666,,0.0816,0.0655,0.0817,0.048,0.067,
T132F,0.0732,,,0.033,0.0417,0.0515,,0.0502,0.0591,,,0.0486,,0.0573,,,,0.0259,0.066
G136P,0.0605,,0.0661,,0.0647,0.0687,0.075,0.0587,0.0817,0.0673,0.0486,,,,,0.0832,,,
I139Q,0.113,,0.0782,,,0.0852,,,0.0991,0.0641,0.0663,0.0864,0.0818,0.0803,,0.111,0.051,,
Q146N,0.116,,,0.066,,,,,0.113,0.0503,0.0618,,0.0813,,0.0764,0.118,,0.09,0.0536
T147Y,0.0623,,0.0577,0.0698,0.0631,,,0.0564,0.0599,0.0603,,,,0.0676,0.0574,0.154,0.0634,,0.063
K148T,0.0718,,0.0788,0.0581,0.0626,,,0.0528,0.0839,,,0.0699,,,,0.104,0.0684,,0.0705
G150F,0.0585,,0.0482,0.0599,0.0651,0.0487,,0.0712,0.0564,0.0612,0.0631,0.0418,0.0562,,,0.0536,0.0603,,
P155M,0.0703,,0.0558,0.0841,0.0639,0.0546,,0.0498,0.0705,0.0543,,,0.0522,,,,0.0518,,
L156K,0.0487,,0.047,0.0448,0.0553,0.0316,0.0444,0.0597,0.0553,0.0547,0.054,0.0443,0.0484,,,,0.0428,,
V157N,0.0521,,0.054,0.0795,0.0406,0.0572,0.056,0.0553,0.0541,0.0417,0.0571,0.0419,0.0509,0.0451,0.0603,0.0487,0.0259,,0.0503
V157R,0.0747,0.0432,,0.0578,0.0447,,0.0089,0.0703,0.0632,0.0475,0.0622,,0.0582,0.0761,0.0575,0.073,,0.0478,0.0457
